First the molecules themselves.
T1: UNK ZnF1-6 (called full-length) (human, UniProt Q9C0B0 30-357)
T1 sequence: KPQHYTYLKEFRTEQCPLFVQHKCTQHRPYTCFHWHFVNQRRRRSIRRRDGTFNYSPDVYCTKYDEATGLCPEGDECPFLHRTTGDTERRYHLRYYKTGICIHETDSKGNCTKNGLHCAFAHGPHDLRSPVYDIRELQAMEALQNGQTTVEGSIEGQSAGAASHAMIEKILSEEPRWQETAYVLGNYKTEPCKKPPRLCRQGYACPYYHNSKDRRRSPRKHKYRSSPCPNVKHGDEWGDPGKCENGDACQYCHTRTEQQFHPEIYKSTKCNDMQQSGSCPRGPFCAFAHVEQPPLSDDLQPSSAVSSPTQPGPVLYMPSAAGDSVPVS

B1: ENSG00000070961:be:win_6151|3pUTR|ENSG00000070961|bound_else_gene|NA|bound_elsewhere_windowed (ssRNA)
RNA: GGGAGUUCUACAGUCCGACGAUCCAAUCACUUUUUCUCUUUUAUCCUCUAACCAAAAAAUUGUUUAAUUUUGCAUCCCAAAUGUUUUUAAUCUUUGUAUAUUUUUUAAAAAUCCUUUUCUCCUCAUCAUUGCCUUUUUUGUGGCAACAGAGGAUUGAGCAUCA
B2: chr19:10683396:10683509:+|CDS|ENSG00000129351|unk|FALSE|bound_elsewhere (ssRNA)
RNA: GGGAGUUCUACAGUCCGACGAUCGUUCCAAGGUGCUGGUUCCAACAAAAAGGUGGCGAAGGCCUACGCUGCUCUUGCUGCCCUAGAAAAGCUUUUCCCUGACACCCCUCUCGCCCUUGAUGCCAACAAAAAGAAGAGAGCCCCCAACAGAGGAUUGAGCAUCA
B3: chr9:14618660:14618761:-|3pUTR|ENSG00000175893|msi1|FALSE|unique (ssRNA)
RNA: GGGAGUUCUACAGUCCGACGAUCUUAGCUUUCCACAGGGAUUUCUUGAAAUGCUUUUGUUAUUAAACUCAAAAGGCAGUGAUUAGGAUGAAAUAAUUGUACAUAAUUUAUUUUAGUACUGACAGUGUUACAGAUUCUAAUUUACAACAGAGGAUUGAGCAUCA
B4: chr3:17009782:17009883:+|CDS|ENSG00000154822|unk|FALSE|unique (ssRNA)
RNA: GGGAGUUCUACAGUCCGACGAUCAAUUCAAUGGUUGAGGGUUCAGAACUCAAAAAGGUUCGCUCCAACUCUAGAAUUUAUCAUAGGUACUUUUUACUGGAUGCUGACAUGCAGAGCCUAAGGUGGGAGCCAUCUAAGAAGGAUCAACAGAGGAUUGAGCAUCA
B5: chr1:183252010:183252124:-|3pUTR|ENSG00000157064|unk|FALSE|unique (ssRNA)
RNA: GGGAGUUCUACAGUCCGACGAUCUCUUUGUUCACUCCCUGUAGAACUUGGAUGAAAUCAGUGUCCAUGGUUCUUUAUGUUUGUAGUCUUGAUGUGCUCCUGUGGUAUUACUUCCCCUCUGAUAGGACAUUGUAGCCAGCCUCACAACAGAGGAUUGAGCAUCA
B6: ENSG00000136451:be:win_2851|3pUTR|ENSG00000136451|bound_else_gene|NA|bound_elsewhere_windowed (ssRNA)
RNA: GGGAGUUCUACAGUCCGACGAUCAUUUUAUCUCUGUACAUAAAGUAGAAACCAAAAGCUAGGGAAACAGAUACUCUUUACACCAUCAUGCCACGCAUUGUUUUUAAAGCAUUGCGUUAAAAAAAAAAUUAACUAAACCAAGAUCAACAGAGGAUUGAGCAUCA
B7: chr16:57253408:57253449:+|3pUTR|ENSG00000102931|msi1_unk|FALSE|overlapping (ssRNA)
RNA: GGGAGUUCUACAGUCCGACGAUCUGUGUGGUAGAUUACUUAUCAGAAAACAUAUAUGUCAUCUCUAGAACGAAGAAAAAGCAUAGUAGUUCAAUUCCCAGUGUGUCCCUUUGAUUUUUUUUUUUUAAUAGUAAAAAUAAGAAUCAACAGAGGAUUGAGCAUCA
B8: chr8:41262982:41263083:-|3pUTR|ENSG00000104332|msi1|total|mutant (ssRNA)
RNA: GGGAGUUCUACAGUCCGACGAUCCAACCGGGCCCUCUCUCUGCGGCAGAGUCCUCCGUGGAGGGGUUUACCUGGAACAUCCGCCGUUACCACAGAAUACGGAAGAGCAGGUGACUGUGCUGUGCAGCUCUCUAAAUGGGAAUUCAACAGAGGAUUGAGCAUCA
B9: chr11:111720585:111720689:+|CDS|ENSG00000170145|unk|total|mutant (ssRNA)
RNA: GGGAGUUCUACAGUCCGACGAUCGUCUGUUCAGAGGGACCUGAACUUUCUGGAAGACAACCCUUCCCUUAAGGACAUCAUGUCCGCCAAUCAGCCUUCACCCCGCAUGACAUCUCCCUUCAUAAGCCUGAGACCUACCAACCCCAACAGAGGAUUGAGCAUCA
B10: chr7:88197266:88197367:+|3pUTR|ENSG00000008277|unk|FALSE|unique (ssRNA)
RNA: GGGAGUUCUACAGUCCGACGAUCCAAAACAUGUGAUAUCCCUUUAACCUGUGCACAGUCUGGAGGCAGUUUUAUUGAGUGAGUAGUUGAGUGAGAGAACAAAAUGCCCAGCAAAACUUCUGGCCUCCACAGUUUGCUGAUGCACAACAGAGGAUUGAGCAUCA
B11: chr2:24000049:24000165:+|3pUTR|ENSG00000173960|unk|FALSE|unique (ssRNA)
RNA: GGGAGUUCUACAGUCCGACGAUCGUAGCAUAUGACUGGAAACUAUAUUCAGUGCACUUUCUCCAAAAGACUACCCAGAAAAAUAGACUUAUUUUCAAAUACCAGUUAUCAAGAUAUAUUAAAUAGCUGUAUUGUUUAGAAUCUCAACAGAGGAUUGAGCAUCA
B12: chr16:55506527:55506628:+|3pUTR|ENSG00000087245|msi1|total|mutant (ssRNA)
RNA: GGGAGUUCUACAGUCCGACGAUCUAUCAGUUUUAAUGCUACUACUAACAAUGAACAGUAACAAUAAUAUCCCCCUCAAUUAACCGAGUGCUUUCUAUGUGCAAGGCACUUUUCACGUGUCACCUAUUUUAACCUUUCCAACCACAACAGAGGAUUGAGCAUCA
B13: chr3:112140897:112141281:-|three_prime_utr|ENSG00000172139|control|control|control (ssRNA)
RNA: GGGAGUUCUACAGUCCGACGAUCACUUUUUGCAAAAUUUCCUUGAUUUAAAAUAUUUGUUAUUUUAAAUAUACAAAACAUUUUAGAAAAUCUUAGAGUAAAUUUUAGUCUUAAAGCCAGAAAAUAAGUUUAUAGCCAUCUAGACAACAGAGGAUUGAGCAUCA
B14: ENSG00000198589:be:win_1101|CDS|ENSG00000198589|bound_else_gene|NA|bound_elsewhere_windowed (ssRNA)
RNA: GGGAGUUCUACAGUCCGACGAUCCAGUGAAGCUCUAAAUGCAGCUCAGAUAUUUGCUAUUUAUCAGUUGGGCCUGGGAUACAAGGGUACAUUUAAAUUCAAAGCAGAAAGCGACCUUUUCCUUGCUGAGCAUCACAAACUUUUCAACAGAGGAUUGAGCAUCA

The other results are listed elsewhere or left out.

The assay deals with T1, UNK ZnF1-6 (called full-length). The assay can be described thus: nsRBNS (natural sequence RNA bind-n-seq); RBNS binding buffer (assumed for nsRBNS): 25 mM Tris pH 7.5, 150 mM KCl, 3 mM MgCl2, 0.01% Triton X-100, 500 ug/ml BSA, 20 U/ml SUPERase-In, 4 C; UNK is unkempt and MSI1 is Musashi-1; names of the RNAs are library labels; protein concentration not given here; high values mean tight binding.
The molecule B1 gave a binding signal of 4.78 enrichment R.

B2: the binding signal turned out to be 2.51 enrichment R.

In the case of B3, the binding signal stood at 0.961 enrichment R.

The molecule B4 yielded a binding signal of 1.84 enrichment R.

B5 registered a binding signal of 0.763 enrichment R.

As to B6, the binding signal stood at 3.17 enrichment R.

The molecule B7 yielded a binding signal of 1.9 enrichment R.

Molecule B8 returned a binding signal of 0.654 enrichment R.

B9 yielded a binding signal of 0.878 enrichment R.

B10 had a binding signal of 0.667 enrichment R.

For B11, the binding signal was 3.33 enrichment R.

B12 showed a binding signal of 0.757 enrichment R.

In the case of B13, the binding signal was 2.83 enrichment R.

Turning to B14, the binding signal is 0.4 enrichment R.
